Results are given in words; binding and its absence hold for the method and conditions named. In cells and extracts the contact can be indirect. Some binding calls cover weakened binding; strength is not graded here.
B1: phospholipase D1 (enzyme, UniProt P70496 1-1074)
chain: MSLRSEARVNTSTLQKIAADMSNLIENLDTRELHFEGEEVEYDASPGDPTAQEACIPFSSIYNTQGFKEPNIQIYLSGCPVKAQVLEVERFTSTSRMPSVNLYTIELTHGEFTWQVKRKFKHFQEFHRELLKYKAFIRIPIPTKRHTFRRQNVKEEPREMPSLPRSSENAIQEEQFFGRRKQLEDYLTKILKMPMYRNYHATTEFLDVSQLSFIHDLGPKGLEGMIMKRSGGHRIPGVNCCGHGRACYRWSKRWLIVKDSFLLYMKPDSGAIAFVLLVDKEFRIKVGKKETETKYGLRIDNLSRTLILKCNSYRHARWWGGAIEEFIQKHGTDFLKDHRFGSYAAVHENILAKWYVNAKGYFEDIANAMEGATEEIFITDWWLSPEIFLKRPVVEGNRWRLDCILKRKAQQGVRIFIMLYKEVELALGINSEYTKRTLMRLHPNIKVMRHPDHVSSSVYLWAHHEKLVIIDQSVAFVGGIDLAYGRWDDNEHRLTDVGSVKRVTSGQSLGSLTAASVESMESLSLKDKHQSHKNEPVLKSVNDTDMKLKGIGKSRKFSKFSLYRQLHRRNLHNSDSISSVDSASSYFNHYRSHQNLIHGIKPHLKLFRPSSESEQGLTRHSADTGSIRSVQTGVGELHGETRFWHGKDYCNFVFKDWVQLDKPFADFIDRYSTPRMPWHDIGSVVHGKAARDVARHFIQRWNFTKIMKPKYRSLSYPFLLPKSQATAHELRYQVPGAVHAKAQLLRSAADWSAGIKHHEESIHAAYTHVIENSKHYIYIENQFFISCADDKVVFNKVGNAIAQRILKAHREGQRYRVYIVIPLLPGFEGDISTGGGNALQAIMHFNYRTMCRGESSILEQLKPELGNKWINYISFCGLRTHAELEGNLVTELIYVHSKLLIADDNTVIIGSANINDRSMLGKRDSEMAVIVQDTETVPSVMDGKEYQAGRFAQGLRLECFRLVLGYLSDPSEDIQDPVSDKFFKEIWVSTAARNATIYDKVFRCLPNDEVHNLIQLRDFINKPILAKEDRLRAEEELRKIRGFLVQFPFYFLSEENLLPSVGTKEAIVPMEVWT

Amino acid sequences for entries named in this document (tags omitted). Residues count along the entry.
UniProt P23385, residues 19-1199: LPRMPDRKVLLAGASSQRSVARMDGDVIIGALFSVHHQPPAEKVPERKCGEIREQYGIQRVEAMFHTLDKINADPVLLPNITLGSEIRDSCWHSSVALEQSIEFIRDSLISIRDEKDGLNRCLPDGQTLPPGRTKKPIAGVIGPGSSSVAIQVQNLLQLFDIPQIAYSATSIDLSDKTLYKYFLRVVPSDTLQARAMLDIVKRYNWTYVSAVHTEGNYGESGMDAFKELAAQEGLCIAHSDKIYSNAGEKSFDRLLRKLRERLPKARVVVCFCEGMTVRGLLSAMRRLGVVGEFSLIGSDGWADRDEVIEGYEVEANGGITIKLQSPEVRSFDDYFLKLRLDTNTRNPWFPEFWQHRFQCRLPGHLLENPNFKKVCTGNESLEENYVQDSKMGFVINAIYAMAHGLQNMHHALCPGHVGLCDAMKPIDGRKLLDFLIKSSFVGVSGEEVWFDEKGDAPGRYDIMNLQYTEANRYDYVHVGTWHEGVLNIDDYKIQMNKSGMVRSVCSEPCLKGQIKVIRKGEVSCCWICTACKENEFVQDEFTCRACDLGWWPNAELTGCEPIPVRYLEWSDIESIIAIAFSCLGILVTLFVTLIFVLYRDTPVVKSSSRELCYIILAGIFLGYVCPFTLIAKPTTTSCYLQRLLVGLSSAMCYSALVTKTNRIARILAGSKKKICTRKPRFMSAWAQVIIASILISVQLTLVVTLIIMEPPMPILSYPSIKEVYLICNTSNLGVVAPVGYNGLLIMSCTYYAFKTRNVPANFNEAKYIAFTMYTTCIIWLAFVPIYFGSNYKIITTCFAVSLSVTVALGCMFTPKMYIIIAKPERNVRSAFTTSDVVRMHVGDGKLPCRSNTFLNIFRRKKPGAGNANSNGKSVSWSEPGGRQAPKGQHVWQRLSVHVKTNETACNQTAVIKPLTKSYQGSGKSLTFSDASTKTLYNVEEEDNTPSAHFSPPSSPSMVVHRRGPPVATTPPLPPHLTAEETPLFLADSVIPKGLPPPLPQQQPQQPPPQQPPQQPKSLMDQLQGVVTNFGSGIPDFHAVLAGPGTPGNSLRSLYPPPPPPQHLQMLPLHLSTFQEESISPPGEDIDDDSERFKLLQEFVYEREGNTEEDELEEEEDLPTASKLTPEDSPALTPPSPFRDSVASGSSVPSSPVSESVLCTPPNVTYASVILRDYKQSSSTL
UniProt P31424, residues 21-1203: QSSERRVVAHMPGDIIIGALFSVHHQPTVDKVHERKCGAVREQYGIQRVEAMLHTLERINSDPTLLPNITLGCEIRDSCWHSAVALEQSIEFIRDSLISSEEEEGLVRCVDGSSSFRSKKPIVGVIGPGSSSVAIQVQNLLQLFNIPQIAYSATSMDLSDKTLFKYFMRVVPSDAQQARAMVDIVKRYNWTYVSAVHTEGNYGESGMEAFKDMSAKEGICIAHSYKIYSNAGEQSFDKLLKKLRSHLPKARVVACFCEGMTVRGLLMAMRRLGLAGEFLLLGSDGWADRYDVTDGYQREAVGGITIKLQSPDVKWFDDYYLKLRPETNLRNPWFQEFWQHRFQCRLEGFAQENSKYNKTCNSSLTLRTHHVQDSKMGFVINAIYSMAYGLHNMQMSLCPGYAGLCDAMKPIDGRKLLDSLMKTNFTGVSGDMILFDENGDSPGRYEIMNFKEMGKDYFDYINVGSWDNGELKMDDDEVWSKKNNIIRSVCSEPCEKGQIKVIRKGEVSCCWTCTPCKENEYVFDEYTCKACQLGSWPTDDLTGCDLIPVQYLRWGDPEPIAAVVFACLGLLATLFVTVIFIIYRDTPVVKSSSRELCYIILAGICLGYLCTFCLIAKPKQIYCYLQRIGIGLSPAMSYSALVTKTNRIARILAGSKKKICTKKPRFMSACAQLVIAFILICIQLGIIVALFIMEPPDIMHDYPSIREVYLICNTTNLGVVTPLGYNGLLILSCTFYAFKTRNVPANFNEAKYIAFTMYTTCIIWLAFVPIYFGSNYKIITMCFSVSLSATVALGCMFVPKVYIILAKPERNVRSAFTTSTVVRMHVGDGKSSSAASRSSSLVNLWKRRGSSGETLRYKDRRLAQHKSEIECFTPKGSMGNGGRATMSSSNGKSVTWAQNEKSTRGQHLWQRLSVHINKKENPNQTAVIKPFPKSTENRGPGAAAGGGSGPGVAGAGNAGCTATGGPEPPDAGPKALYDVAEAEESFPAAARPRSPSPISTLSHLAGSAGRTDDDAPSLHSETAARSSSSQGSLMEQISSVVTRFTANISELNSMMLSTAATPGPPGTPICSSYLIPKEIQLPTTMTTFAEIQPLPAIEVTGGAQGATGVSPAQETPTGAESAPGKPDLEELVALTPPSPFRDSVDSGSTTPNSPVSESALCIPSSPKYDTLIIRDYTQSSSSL
UniProt P70498: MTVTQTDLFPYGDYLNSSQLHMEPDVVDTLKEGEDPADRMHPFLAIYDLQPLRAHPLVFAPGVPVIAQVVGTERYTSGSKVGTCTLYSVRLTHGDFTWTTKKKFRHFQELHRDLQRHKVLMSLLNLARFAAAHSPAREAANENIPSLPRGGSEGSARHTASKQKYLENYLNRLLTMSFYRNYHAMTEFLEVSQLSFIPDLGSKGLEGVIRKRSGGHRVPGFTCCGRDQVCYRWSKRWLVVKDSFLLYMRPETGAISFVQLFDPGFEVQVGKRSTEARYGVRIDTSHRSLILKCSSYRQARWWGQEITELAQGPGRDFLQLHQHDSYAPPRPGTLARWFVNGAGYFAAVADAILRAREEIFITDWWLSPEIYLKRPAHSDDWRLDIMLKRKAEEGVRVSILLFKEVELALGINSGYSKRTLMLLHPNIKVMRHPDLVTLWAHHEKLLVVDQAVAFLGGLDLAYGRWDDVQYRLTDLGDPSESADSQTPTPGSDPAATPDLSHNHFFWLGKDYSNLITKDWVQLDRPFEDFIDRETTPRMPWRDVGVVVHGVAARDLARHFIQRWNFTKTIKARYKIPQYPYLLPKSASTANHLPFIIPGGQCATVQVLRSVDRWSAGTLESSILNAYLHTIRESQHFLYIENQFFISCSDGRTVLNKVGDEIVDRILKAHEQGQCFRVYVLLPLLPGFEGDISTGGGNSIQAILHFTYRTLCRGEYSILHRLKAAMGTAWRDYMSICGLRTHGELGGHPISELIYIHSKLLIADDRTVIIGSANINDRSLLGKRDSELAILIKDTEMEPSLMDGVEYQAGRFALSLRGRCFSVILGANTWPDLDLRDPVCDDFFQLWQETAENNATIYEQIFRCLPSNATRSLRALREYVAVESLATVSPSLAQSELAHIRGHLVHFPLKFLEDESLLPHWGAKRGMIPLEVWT

Assays:
[1] = molecular target: metabotropic glutamate receptor 1 (rat (endogenous in amygdala of Sprague-Dawley rats)) (UniProt P23385); test: co-IP; amygdala extracts from cocaine CPP rats; IP with mGluR1 or mGluR5 antibody, immunoblot with PLD1 or PLD2 antibody
[2] = molecular target: metabotropic glutamate receptor 5 (rat (endogenous in amygdala of Sprague-Dawley rats)) (UniProt P31424); test: as above
[3] = molecular target: metabotropic glutamate receptor 1 (rat (endogenous in amygdala of Sprague-Dawley rats)) (UniProt P23385); test: condition: only amygdala of saline-treated animals (no cocaine CPP); co-IP; amygdala extracts from saline-treated rats; IP with mGluR1 or mGluR5 antibody, immunoblot with PLD1 or PLD2 antibody
[4] = molecular target: metabotropic glutamate receptor 5 (rat (endogenous in amygdala of Sprague-Dawley rats)) (UniProt P31424); test: as above

| Molecule | binding [1] | binding [2] | binding [3] | binding [4] |
| --- | --- | --- | --- | --- |
| phospholipase D2 (from UniProt P70498 1-933) (enzyme) | binds | binds | no binding | no binding |
| B1 | binds | binds | no binding | no binding |

Reference: article PMC3181343
